Measurements published in PubChem BioAssay (NCI).
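Growth conditions: 96-well plates. Treatment: test compound, 48 hours, 5 concentrations. Analysis: linear interpolation between bracketing concentrations; unreached endpoints set to highest concentration. The concentration for 50% growth inhibition is given as GI50.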 A number of entries come with more than one value. Only these are listed. There may be further records. For some of these results: A record mostly stands for its own series of concentrations, not given here; a value can be the end of its range. Brackets tell where a record comes from. The letters are not those of the source and start again with each entry. For some of these results: The values listed for one entry are repeats across runs, samples, wells, individuals or studies.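 TGI is the concentration that stops growth completely.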

Key:
Test in all cases: growth of human tumour cells (NCI), 48 h
[1] = test system: HCC-2998 colon
[2] = test system: HOP-92 NSCLC
[3] = test system: RPMI-8226 leukemia
[4] = test system: LOX IMVI melanoma
[5] = test system: OVCAR-3 ovarian
[6] = test system: SK-MEL-2 melanoma
[7] = test system: CAKI-1 renal
[8] = test system: NCI-H460 lung
[9] = test system: NCI-H23 lung
[10] = test system: SF-295 CNS
[11] = test system: SK-MEL-5 melanoma
[12] = test system: HCT-15 colon
[13] = test system: MDA-MB-231 breast
[14] = test system: EKVX NSCLC
[15] = test system: CCRF-CEM leukemia
[16] = test system: A549 NSCLC
[17] = test system: HCT-116 colon
[18] = test system: HS 578T breast
[19] = test system: HT29 colon
[20] = test system: NCI-H226 lung
[21] = test system: SK-OV-3 ovarian
[22] = test system: U251 CNS
[23] = test system: TK-10 renal
[24] = test system: SF-268 CNS
[25] = test system: MCF7 breast
[26] = test system: OVCAR-4 ovarian
[27] = test system: OVCAR-5 ovarian

COc1cccc(-c2cc(=O)c3cc(N(C)C)ccc3[nH]2)c1
TGI [1]: 12.5 nM [sample A, 1 test] and 269 nM [sample A, mean of 2 tests] and 35.9 nM [sample B, 1 test] and 55.5 nM [sample B, mean of 2 tests] | GI50 [2]: 26.4 nM [sample A, 1 test] and 96.2 nM [sample A, mean of 2 tests] and 29.8 nM [sample B, 1 test] and 6.29 nM [sample B, mean of 2 tests] | TGI [2]: > 100 µM [sample A, 1 test] and 2.18 µM [sample A, mean of 2 tests] and 77.1 µM [sample B, 1 test] and 929 nM [sample B, mean of 2 tests] | TGI [3]: 6.33 µM [sample A] and 6.51 µM, 28.7 nM [sample B] | TGI [4]: 92.8 µM [sample A, 1 test] and 1.31 µM [sample A, mean of 2 tests] and 86.8 µM [sample B, 1 test] and 934 nM [sample B, mean of 2 tests] | TGI [5]: 33.7 nM, 6.36 µM [sample A, 1 test] and 7.1 nM, 11.2 µM [sample B, 1 test] | TGI [6]: > 100 µM [sample A, 1 test] and 583 nM [sample A, mean of 2 tests] and > 100 µM [sample B, 1 test] and 1.93 µM [sample B, mean of 2 tests] | GI50 [7]: 65.7 nM [sample A, mean of 2 tests] and 5.88 nM [sample B, mean of 2 tests] | TGI [8]: > 100 µM [sample A, 1 test] and 1.35 µM [sample A, mean of 2 tests] and 14.7 µM [sample B, 1 test] and 4.55 µM [sample B, mean of 2 tests] | TGI [9]: 930 nM, > 100 µM [sample A] and 980 nM [sample B] | TGI [10]: > 100 µM [sample A, 1 test] and 44 nM [sample A, mean of 2 tests] and 27.9 nM [sample B, mean of 2 tests] | TGI [11]: > 100 µM [sample A, 1 test] and 230 nM [sample A, mean of 2 tests] and 27.7 µM [sample B, 1 test] and 126 nM [sample B, mean of 2 tests] | TGI [12]: 38.3 nM, 79.9 nM [sample A] and 54.4 nM, 7.31 µM [sample B] | TGI [13]: 6.9 µM, 75.5 nM [sample A] and 920 nM [sample B] | GI50 [14]: 14.5 nM [sample A, 1 test] and 172 nM [sample A, mean of 2 tests] and 13.6 nM [sample B, 1 test] and 81.6 nM [sample B, mean of 2 tests] | TGI [14]: > 100 µM [sample A, 1 test] and 7.84 µM [sample A, mean of 2 tests] and 22.3 µM [sample B, 1 test] | TGI [15]: 3.38 µM [sample A, mean of 2 tests] and 15.7 nM [sample B, 1 test] | GI50 [16]: 14.3 nM [sample A, 1 test] and 45.9 nM [sample A, mean of 2 tests] and 42.3 nM [sample B, 1 test] and 21.9 nM [sample B, mean of 2 tests] | TGI [17]: 1.2 µM, > 100 µM [sample A, 1 test] and 1.02 µM, 12.7 µM [sample B, 1 test] | TGI [18]: 77.7 nM [sample A, mean of 2 tests] and 8.05 µM [sample B, 1 test] | TGI [19]: 52 nM, 13.8 nM [sample A] and 45.6 nM, 57.8 nM [sample B] | TGI [20]: 103 nM, 254 nM [sample A] and 114 nM, 328 nM [sample B] | TGI [21]: 925 nM [sample A, mean of 2 tests] and 15.8 µM [sample B, 1 test] and 748 nM [sample B, mean of 2 tests] | TGI [22]: > 100 µM [sample A, 1 test] and 266 nM [sample A, mean of 2 tests] and 20.5 µM [sample B, 1 test] and 600 nM [sample B, mean of 2 tests] | GI50 [23]: 77.2 nM [sample A, 1 test] and 323 nM [sample A, mean of 2 tests] and 51 nM [sample B, 1 test] and 56.9 nM [sample B, mean of 2 tests] | GI50 [24]: 16.3 nM [sample A, 1 test] and 33.2 nM [sample A, mean of 2 tests] and 11.9 nM [sample B, 1 test] and 5.39 nM [sample B, mean of 2 tests] | TGI [24]: > 100 µM [sample A, 1 test] and 948 nM [sample A, mean of 2 tests] and 19.9 µM [sample B, 1 test] and 421 nM [sample B, mean of 2 tests] | GI50 [25]: 23.9 nM [sample A, 1 test] and 101 nM [sample A, mean of 2 tests] and 27.2 nM [sample B, 1 test] and 46.7 nM [sample B, mean of 2 tests] | TGI [25]: > 100 µM [sample A, 1 test] and 8.63 µM [sample A, mean of 2 tests] and 56 µM [sample B, 1 test] | GI50 [26]: > 100 µM [sample A, 1 test] and 286 nM [sample B, 1 test]

CCOC(=O)/C=C(/C(=O)OCC)n1cc(Cl)c(=O)n(CC(=O)OCC)c1=O
TGI [27]: 8.72 µM and > 100 µM
